Experimental findings from the BET-seq Pho4 binding data (Le et al. 2018) are described below.

This is one part of the list. The energies were worked out here from pooled read counts, against the library average; single values are noisy.

This experiment concerns the target T1, Pho4 (S. cerevisiae) (UniProt P07270).
T1 sequence: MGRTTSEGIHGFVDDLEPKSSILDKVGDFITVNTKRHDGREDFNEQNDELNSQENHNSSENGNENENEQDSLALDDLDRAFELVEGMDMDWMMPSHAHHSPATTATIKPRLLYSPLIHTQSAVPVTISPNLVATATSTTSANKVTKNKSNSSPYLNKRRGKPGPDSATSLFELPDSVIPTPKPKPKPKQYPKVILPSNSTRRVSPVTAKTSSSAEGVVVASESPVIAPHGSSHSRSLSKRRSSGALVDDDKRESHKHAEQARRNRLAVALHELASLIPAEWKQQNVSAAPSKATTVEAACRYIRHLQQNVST
Kind of experiment: relative binding free energy (BET-seq); higher = weaker binding. As to conditions: reference: library average.
For the sequence TGGTACACGTGTCATG, the “relative binding free energy” value is -0.04 kcal/mol.
In the case of GTTTGCACGTGGCTTG, the “relative binding free energy” value is -0.01 kcal/mol.
Regarding GTAGTCACGTGGGCAG, the “relative binding free energy” value is 0.04 kcal/mol.
On to TTTGTCACGTGATGAG, for which the “relative binding free energy” value was found to be 0.23 kcal/mol.
Consider GTTAGCACGTGATGAG, for which the “relative binding free energy” value was 0.13 kcal/mol.
Consider AGTTTCACGTGTTTCG, for which the “relative binding free energy” value was found to be 0.21 kcal/mol.
In the case of AGTTTCACGTGAGTCT, the “relative binding free energy” value worked out at 0.25 kcal/mol.
Regarding TTTTTCACGTGGGCTC, the “relative binding free energy” value was 0.18 kcal/mol.
For GTTCGCACGTGATAGT, the “relative binding free energy” value is 0.21 kcal/mol.
For the sequence GAGTTCACGTGGAAGG, the “relative binding free energy” value was determined as 0.38 kcal/mol.
For GTTGCCACGTGGAGTA, the “relative binding free energy” value is -0.16 kcal/mol.
In the case of GTTGCCACGTGGGGAT, the “relative binding free energy” value was -0.1 kcal/mol.
Consider TTTGGCACGTGATGCC, for which the “relative binding free energy” value was -0.01 kcal/mol.
As for GGTGTCACGTGTCGAA, the “relative binding free energy” value was 0.18 kcal/mol.
As to TCGGTCACGTGTTAAT, the “relative binding free energy” value came to 0.17 kcal/mol.
In the case of TTTAACACGTGTATCT it was 0.05 kcal/mol; in that of GTATGCACGTGGTGCA, -0.2 kcal/mol.
Regarding GGTAGCACGTGAAGTC, the “relative binding free energy” value was 0.3 kcal/mol.
Regarding GTGCGCACGTGTGTTT, the “relative binding free energy” value was found to be 0.04 kcal/mol.
Consider TCTTGCACGTGAAAGG, for which the “relative binding free energy” value stood at 0.16 kcal/mol.
Take GAGGTCACGTGTTGGG: the “relative binding free energy” value is 0.18 kcal/mol.
For TAGGACACGTGTGAAG, the “relative binding free energy” value stood at 0.05 kcal/mol.
On to ATAGGCACGTGGGATA, for which the “relative binding free energy” value was -0.32 kcal/mol.
Next, ATGTACACGTGGGGCA: -0.13 kcal/mol; TAGTGCACGTGGAAGG: 0.08 kcal/mol; TTGGACACGTGAGAAG: 0.37 kcal/mol.
In the case of GCCTTCACGTGGTTTG it was 0.23 kcal/mol; in that of GGTTTCACGTGATGGG, 0.48 kcal/mol; in that of TTGGGCACGTGTCGCG, -0.11 kcal/mol.
For the sequence TTTGGCACGTGGCTTA, the “relative binding free energy” value is -0.12 kcal/mol.
Next, AGGGGCACGTGATGTT: 0.11 kcal/mol.
ATTTGCACGTGTCTTG: the “relative binding free energy” value is 0 kcal/mol.
Take AGAGTCACGTGGAACG: the “relative binding free energy” value was 0.24 kcal/mol.
Next, TGTTCCACGTGTTATT: 0 kcal/mol; GGTAGCACGTGTTGGG: -0.03 kcal/mol; AGGGCCACGTGGCGTG: -0.21 kcal/mol.
On to GGTCTCACGTGTTGGG, for which the “relative binding free energy” value stood at 0.37 kcal/mol.
For the sequence GAAGTCACGTGTTATT, the “relative binding free energy” value is -0.02 kcal/mol.
In the case of ATTTTCACGTGTTGAG it was 0.18 kcal/mol; in that of GTATTCACGTGAGGGT, 0.39 kcal/mol.
On to ATTGGCACGTGCGGAT, for which the “relative binding free energy” value was -0.17 kcal/mol.
Next, TATAGCACGTGTAGTT: -0.03 kcal/mol.
Turning to GGCAACACGTGGGTTT, the “relative binding free energy” value is -0.16 kcal/mol.
For TTTTTCACGTGGAGTT, the “relative binding free energy” value was determined as 0.29 kcal/mol.
In the case of AGTGTCACGTGCTCGG it was 0.13 kcal/mol; in that of TTGTTCACGTGATGTG, 0.4 kcal/mol.
Next, GGGGACACGTGGAGAT: 0.08 kcal/mol; TTCTGCACGTGTAGGT: 0.13 kcal/mol; TAGATCACGTGAGGGT: 0.3 kcal/mol.
Next, GGACTCACGTGAATGG: 0.44 kcal/mol; GAAACCACGTGGGGTT: 0.05 kcal/mol; AATTGCACGTGGCGGG: -0.01 kcal/mol.
Take GATTGCACGTGAGGAT: the “relative binding free energy” value stood at 0.24 kcal/mol.
Next, TGGTACACGTGTTCGA: 0 kcal/mol.
For the sequence TTAGGCACGTGTGGAG, the “relative binding free energy” value was -0.06 kcal/mol.
As for AGCGTCACGTGTGTGT, the “relative binding free energy” value was 0.08 kcal/mol.
In the case of GTAAGCACGTGTTTGA it was 0.05 kcal/mol.
GTTTGCACGTGTTATA: the “relative binding free energy” value came to 0.06 kcal/mol.
As for GTTATCACGTGGTTAT, the “relative binding free energy” value turned out to be 0.13 kcal/mol.
As to TGAGTCACGTGCTTTT, the “relative binding free energy” value is -0.03 kcal/mol.
As for GTTGACACGTGAAGGC, the “relative binding free energy” value is 0.29 kcal/mol.
In the case of GTTTGCACGTGGTTTA, the “relative binding free energy” value stood at 0.05 kcal/mol.
Next, GGCTGCACGTGCAGGT: -0.04 kcal/mol; GTTGGCACGTGAAGGG: 0.13 kcal/mol; ATGGTCACGTGCCGGG: -0.01 kcal/mol.
ATTAGCACGTGTGAGG: the “relative binding free energy” value was -0.03 kcal/mol.
In the case of ATGGGCACGTGGGCCG, the “relative binding free energy” value was -0.23 kcal/mol.
On to TAGGACACGTGGGAGG, for which the “relative binding free energy” value was -0.04 kcal/mol.
For AGTGACACGTGGGGGC, the “relative binding free energy” value was -0.19 kcal/mol.
Take AGTTTCACGTGCAGTG: the “relative binding free energy” value amounted to 0.18 kcal/mol.
In the case of GTCGGCACGTGTATGG it was 0 kcal/mol; in that of AGATGCACGTGGGTGA, -0.13 kcal/mol.
ATTGTCACGTGATGTC: the “relative binding free energy” value turned out to be 0.15 kcal/mol.
Turning to TTAAACACGTGTGGTG, the “relative binding free energy” value was -0.03 kcal/mol.
For the sequence TCGTGCACGTGTCGAG, the “relative binding free energy” value came to 0.1 kcal/mol.
For ACGTGCACGTGATGTT, the “relative binding free energy” value is -0.04 kcal/mol.
In the case of TTATACACGTGAGGTG it was 0.27 kcal/mol.
Consider GGACGCACGTGTAGGT, for which the “relative binding free energy” value came to 0.01 kcal/mol.
Take AAATACACGTGTAGGT: the “relative binding free energy” value was -0.05 kcal/mol.
Turning to GAGGCCACGTGTAGGG, the “relative binding free energy” value is -0.09 kcal/mol.
Regarding AAATTCACGTGTGATG, the “relative binding free energy” value is 0.26 kcal/mol.
Next, ATCGACACGTGTATGT: 0.19 kcal/mol; AATGTCACGTGATCGT: 0.2 kcal/mol; TGAAGCACGTGTGCAT: -0.02 kcal/mol.
As to GCTTGCACGTGTTGGG, the “relative binding free energy” value was 0.11 kcal/mol.
As to TCGGTCACGTGGCGTT, the “relative binding free energy” value was -0.02 kcal/mol.
Regarding TGTATCACGTGGGAGT, the “relative binding free energy” value came to 0.05 kcal/mol.
For the sequence ATATTCACGTGGCGGA, the “relative binding free energy” value turned out to be 0.27 kcal/mol.
On to CTTTACACGTGTAAGG, for which the “relative binding free energy” value worked out at 0.18 kcal/mol.
TTTCACACGTGAATTG: the “relative binding free energy” value was determined as 0.3 kcal/mol.
Consider TAGTACACGTGGTGGG, for which the “relative binding free energy” value stood at 0 kcal/mol.
In the case of TGGTGCACGTGCAGGT it was 0.01 kcal/mol; in that of AGAGGCACGTGAGATT, 0.17 kcal/mol.
As for TGAAGCACGTGATTTG, the “relative binding free energy” value stood at 0.01 kcal/mol.
For TTTGACACGTGCGGTA, the “relative binding free energy” value is -0.17 kcal/mol.
In the case of AGGTCCACGTGAGTTT it was 0.26 kcal/mol.
Regarding CGGAGCACGTGTGCGG, the “relative binding free energy” value was -0.23 kcal/mol.
Regarding AGGTGCACGTGGGAGT, the “relative binding free energy” value is -0.2 kcal/mol.
As to TATGGCACGTGGCCGG, the “relative binding free energy” value is -0.21 kcal/mol.
Next, AGTGGCACGTGGACTG: -0.16 kcal/mol.
With TCAGACACGTGTATGT, the “relative binding free energy” value was determined as 0.07 kcal/mol.
Turning to CTATTCACGTGTGGTA, the “relative binding free energy” value is 0.26 kcal/mol.
Regarding TATGGCACGTGAAAAG, the “relative binding free energy” value is -0.02 kcal/mol.
Regarding GGTGACACGTGGGACT, the “relative binding free energy” value was -0.1 kcal/mol.
As to TATTGCACGTGATAAT, the “relative binding free energy” value turned out to be 0.07 kcal/mol.
With TGTAACACGTGAGTGA, the “relative binding free energy” value came to 0.15 kcal/mol.
TTTAGCACGTGAAGCT: the “relative binding free energy” value was determined as 0.08 kcal/mol.
With GTCTTCACGTGCTAGG, the “relative binding free energy” value is 0.38 kcal/mol.
TGGTGCACGTGACAGG: the “relative binding free energy” value was found to be 0.07 kcal/mol.
For the sequence CTTGGCACGTGGCTTG, the “relative binding free energy” value is -0.26 kcal/mol.
TGAATCACGTGGCGGT: the “relative binding free energy” value came out at 0.05 kcal/mol.
Turning to GAGTGCACGTGTTGAA, the “relative binding free energy” value amounted to 0.17 kcal/mol.
On to GGATACACGTGGGTTA, for which the “relative binding free energy” value is -0.01 kcal/mol.
Next, TGGATCACGTGTTAAA: 0.13 kcal/mol; TGAGCCACGTGGGGAG: -0.03 kcal/mol.
